# Reference: the supplement of paper PMC8728848
# This is one part of the list.
# B1: GNL (Galanthus nivalis) (protein)
# chain: MGHHHHHHHHYGTLENGHWLMVGMSIFSKDRTVELRMQDDGKLAIYYNDHCAWQSTAQQVNNAKGAVMQGDGNFCIYDKNGKATWHTNTAAPSGDSHTFVSVQDDGNLVLYKNNGATPIWSSKSNK
# Legend:
# Test in all cases: glycan array binding signal (z-score within array); higher = stronger binding
# Conditions in all cases: glycan notation: IUPAC condensed, linker removed
# [1] = biological target: Neu5Ac(a2-6)Gal(b1-4)GlcNAc(b1-2)Man(a1-3)[Man(a1-6)]Man(b1-4)GlcNAc(b1-4)GlcNAc
# How it was run: (§1)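 The binding signal is a Z-score computed within each array. Data were drawn from 3228 arrays in the Consortium for Functional Glycomics database, restricted to those with a known protein sequence. Scores were averaged over arrays of the same protein sequence at different concentrations or buffers, and over linkers, and negative values can be taken as non-binding.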
# [2] = biological target: Neu5Ac(a2-6)Gal(b1-4)GlcNAc(b1-2)Man(a1-3)[Neu5Ac(a2-3)Gal(b1-4)GlcNAc(b1-2)Man(a1-6)]Man(b1-4)GlcNAc(b1-4)GlcNAc
# How it was run: as §1
# [3] = biological target: Neu5Ac(a2-6)Gal(b1-4)GlcNAc(b1-2)Man(a1-3)[Neu5Ac(a2-6)Gal(b1-4)GlcNAc(b1-2)Man(a1-6)]Man(b1-4)GlcNAc(b1-4)GlcNAc
# How it was run: as §1
# [4] = biological target: Neu5Ac(a2-6)Gal(b1-4)GlcNAc(b1-2)Man(a1-3)[Neu5Ac(a2-6)Gal(b1-4)GlcNAc(b1-2)Man(a1-6)]Man(b1-4)GlcNAc(b1-4)[Fuc(a1-6)]GlcNAc
# How it was run: as §1
# [5] = biological target: Neu5Ac(a2-6)Gal(b1-4)GlcNAc(b1-2)Man(a1-6)Man(b1-4)GlcNAc(b1-4)GlcNAc
# How it was run: as §1
# [6] = biological target: Neu5Ac(a2-6)Gal(b1-4)GlcNAc(b1-2)Man(a1-6)[Gal(b1-4)GlcNAc(b1-2)Man(a1-3)]Man(b1-4)GlcNAc(b1-4)GlcNAc
# How it was run: as §1
# [7] = biological target: Neu5Ac(a2-6)Gal(b1-4)GlcNAc(b1-2)Man(a1-6)[GlcNAc(b1-2)Man(a1-3)]Man(b1-4)GlcNAc(b1-4)GlcNAc
# How it was run: as §1
# [8] = biological target: Neu5Ac(a2-6)Gal(b1-4)GlcNAc(b1-2)Man(a1-6)[Man(a1-3)]Man(b1-4)GlcNAc(b1-4)GlcNAc
# How it was run: as §1
# [9] = biological target: Neu5Ac(a2-6)Gal(b1-4)GlcNAc(b1-2)[Neu5Ac(a2-6)Gal(b1-4)GlcNAc(b1-4)]Man(a1-3)[GlcNAc(b1-4)][Neu5Ac(a2-6)Gal(b1-4)GlcNAc(b1-2)[Neu5Ac(a2-6)Gal(b1-4)GlcNAc(b1-6)]Man(a1-6)]Man(b1-4)GlcNAc(b1-4)GlcNAc
# How it was run: as §1
# [10] = biological target: Neu5Ac(a2-6)Gal(b1-4)GlcNAc(b1-2)[Neu5Ac(a2-6)Gal(b1-4)GlcNAc(b1-4)]Man(a1-3)[GlcNAc(b1-4)][Neu5Ac(a2-6)Gal(b1-4)GlcNAc(b1-4)Man(a1-6)]Man(b1-4)GlcNAc(b1-4)GlcNAc
# How it was run: as §1
# [11] = biological target: Neu5Ac(a2-6)Gal(b1-4)GlcNAc(b1-2)[Neu5Ac(a2-6)Gal(b1-4)GlcNAc(b1-6)]Man(a1-6)[Neu5Ac(a2-6)Gal(b1-4)GlcNAc(b1-2)Man(a1-3)][GlcNAc(b1-4)]Man(b1-4)GlcNAc(b1-4)GlcNAc
# How it was run: as §1
# [12] = biological target: Neu5Ac(a2-6)Gal(b1-4)GlcNAc(b1-3)Gal(b1-3)GlcNAc
# How it was run: as §1
# [13] = biological target: Neu5Ac(a2-6)Gal(b1-4)GlcNAc(b1-3)Gal(b1-4)GlcNAc
# How it was run: as §1
# [14] = biological target: Neu5Ac(a2-6)Gal(b1-4)GlcNAc(b1-3)Gal(b1-4)GlcNAc(b1-2)Man(a1-3)[Neu5Ac(a2-6)Gal(b1-4)GlcNAc(b1-3)Gal(b1-4)GlcNAc(b1-2)Man(a1-6)]GalNAc
# How it was run: as §1
# [15] = biological target: Neu5Ac(a2-6)Gal(b1-4)GlcNAc(b1-3)Gal(b1-4)GlcNAc(b1-3)Gal(b1-4)GlcNAc
# How it was run: as §1
# [16] = biological target: Neu5Ac(a2-6)Gal(b1-4)GlcNAc(b1-3)Gal(b1-4)GlcNAc(b1-3)Gal(b1-4)GlcNAc(b1-2)Man(a1-3)[Neu5Ac(a2-6)Gal(b1-4)GlcNAc(b1-3)Gal(b1-4)GlcNAc(b1-3)Gal(b1-4)GlcNAc(b1-2)Man(a1-6)]GalNAc
# How it was run: as §1
# [17] = biological target: Neu5Ac(a2-6)Gal(b1-4)GlcNAc(b1-3)Gal(b1-4)GlcNAc(b1-3)GalNAc
# How it was run: as §1
# [18] = biological target: Neu5Ac(a2-6)Gal(b1-4)GlcNAc(b1-3)Gal(b1-4)GlcNAc(b1-3)[Neu5Ac(a2-6)Gal(b1-4)GlcNAc(b1-3)Gal(b1-4)GlcNAc(b1-6)]GalNAc
# How it was run: as §1
# [19] = biological target: Neu5Ac(a2-6)Gal(b1-4)GlcNAc(b1-3)Gal(b1-4)GlcNAc(b1-6)[Gal(b1-3)]GalNAc
# How it was run: as §1
# [20] = biological target: Neu5Ac(a2-6)Gal(b1-4)GlcNAc(b1-3)Gal(b1-4)[Fuc(a1-3)]GlcNAc(b1-3)Gal(b1-4)[Fuc(a1-3)]GlcNAc
# How it was run: as §1
# [21] = biological target: Neu5Ac(a2-6)Gal(b1-4)GlcNAc(b1-3)GalNAc
# How it was run: as §1
# [22] = biological target: Neu5Ac(a2-6)Gal(b1-4)GlcNAc(b1-3)[Neu5Ac(a2-6)Gal(b1-4)GlcNAc(b1-6)]GalNAc
# How it was run: as §1
# [23] = biological target: Neu5Ac(a2-6)Gal(b1-4)GlcNAc(b1-6)GalNAc
# How it was run: as §1
# [24] = biological target: Neu5Ac(a2-6)Gal(b1-4)GlcNAc(b1-6)[Gal(b1-3)GlcNAc(b1-3)]Gal(b1-4)Glc
# How it was run: as §1
# [25] = biological target: Neu5Ac(a2-6)Gal(b1-4)GlcNAc(b1-6)[Gal(b1-3)]GalNAc
# How it was run: as §1
# [26] = biological target: Neu5Ac(a2-6)Gal(b1-4)GlcNAc6S
# How it was run: as §1
# Neu5Ac(a2-6)GalNAc = biological target: Neu5Ac(a2-6)GalNAc
# How it was run: as §1
# [27] = biological target: Neu5Ac(a2-6)GalNAc(b1-4)GlcNAc
# How it was run: as §1
# [28] = biological target: Neu5Ac(a2-6)GalNAc(b1-4)GlcNAc6S
# How it was run: as §1
# [29] = biological target: Neu5Ac(a2-6)GlcNAc(b1-4)GlcNAc
# How it was run: as §1
# [30] = biological target: Neu5Ac(a2-6)GlcNAc(b1-4)GlcNAc(b1-4)GlcNAc
# How it was run: as §1
binder,measurement,setting,value
B1,glycan array binding signal (z-score),[1],5.43
same,glycan array binding signal (z-score),[2],0.179
same,glycan array binding signal (z-score),[3],0.585
same,glycan array binding signal (z-score),[4],1.1
same,glycan array binding signal (z-score),[5],-0.155
same,glycan array binding signal (z-score),[6],2.47
same,glycan array binding signal (z-score),[7],5.03
same,glycan array binding signal (z-score),[8],-0.236
same,glycan array binding signal (z-score),[9],-0.196
same,glycan array binding signal (z-score),[10],-0.237
same,glycan array binding signal (z-score),[11],-0.197
same,glycan array binding signal (z-score),[12],-0.221
same,glycan array binding signal (z-score),[13],-0.274
same,glycan array binding signal (z-score),[14],0.004
same,glycan array binding signal (z-score),[15],-0.282
same,glycan array binding signal (z-score),[16],-0.078
same,glycan array binding signal (z-score),[17],-0.153
same,glycan array binding signal (z-score),[18],-0.208
same,glycan array binding signal (z-score),[19],-0.216
same,glycan array binding signal (z-score),[20],-0.176
same,glycan array binding signal (z-score),[21],-0.274
same,glycan array binding signal (z-score),[22],-0.247
same,glycan array binding signal (z-score),[23],-0.235
same,glycan array binding signal (z-score),[24],-0.28
same,glycan array binding signal (z-score),[25],-0.133
same,glycan array binding signal (z-score),[26],-0.245
same,glycan array binding signal (z-score),Neu5Ac(a2-6)GalNAc,-0.27
same,glycan array binding signal (z-score),[27],-0.307
same,glycan array binding signal (z-score),[28],-0.227
same,glycan array binding signal (z-score),[29],-0.141
same,glycan array binding signal (z-score),[30],-0.29
